Binding data for three molecules are collected here from publication PMC9561284.

Amino acid sequences for entries named in this document (tags omitted).
UniProt O00567: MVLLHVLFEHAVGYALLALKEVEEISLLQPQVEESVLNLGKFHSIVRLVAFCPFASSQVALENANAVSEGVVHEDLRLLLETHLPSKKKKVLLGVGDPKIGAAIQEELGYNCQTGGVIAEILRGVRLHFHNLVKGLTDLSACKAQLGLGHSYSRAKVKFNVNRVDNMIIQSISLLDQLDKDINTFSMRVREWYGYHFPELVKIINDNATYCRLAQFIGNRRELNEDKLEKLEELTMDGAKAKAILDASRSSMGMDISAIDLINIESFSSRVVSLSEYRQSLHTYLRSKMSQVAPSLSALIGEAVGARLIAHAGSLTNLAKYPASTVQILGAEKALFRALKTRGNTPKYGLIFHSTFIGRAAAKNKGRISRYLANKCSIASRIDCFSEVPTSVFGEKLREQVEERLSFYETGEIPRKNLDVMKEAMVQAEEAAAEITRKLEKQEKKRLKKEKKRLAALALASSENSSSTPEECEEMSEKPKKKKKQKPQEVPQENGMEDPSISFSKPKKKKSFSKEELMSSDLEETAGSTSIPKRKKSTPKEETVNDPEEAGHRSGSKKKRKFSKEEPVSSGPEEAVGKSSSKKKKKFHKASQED
UniProt Q9UHK0: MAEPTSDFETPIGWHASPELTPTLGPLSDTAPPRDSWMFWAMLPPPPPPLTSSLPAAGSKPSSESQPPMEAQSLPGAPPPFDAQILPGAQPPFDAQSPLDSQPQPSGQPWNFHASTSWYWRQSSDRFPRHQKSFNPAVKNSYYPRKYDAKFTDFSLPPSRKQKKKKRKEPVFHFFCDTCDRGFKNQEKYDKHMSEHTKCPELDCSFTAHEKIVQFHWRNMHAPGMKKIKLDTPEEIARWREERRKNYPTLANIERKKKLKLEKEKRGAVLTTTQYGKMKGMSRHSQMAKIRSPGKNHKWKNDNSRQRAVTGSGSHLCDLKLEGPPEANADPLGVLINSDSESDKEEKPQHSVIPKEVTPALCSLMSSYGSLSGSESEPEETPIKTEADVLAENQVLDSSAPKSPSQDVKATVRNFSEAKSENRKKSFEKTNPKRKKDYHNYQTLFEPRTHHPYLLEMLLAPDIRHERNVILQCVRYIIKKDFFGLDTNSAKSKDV
UniProt Q9Y265: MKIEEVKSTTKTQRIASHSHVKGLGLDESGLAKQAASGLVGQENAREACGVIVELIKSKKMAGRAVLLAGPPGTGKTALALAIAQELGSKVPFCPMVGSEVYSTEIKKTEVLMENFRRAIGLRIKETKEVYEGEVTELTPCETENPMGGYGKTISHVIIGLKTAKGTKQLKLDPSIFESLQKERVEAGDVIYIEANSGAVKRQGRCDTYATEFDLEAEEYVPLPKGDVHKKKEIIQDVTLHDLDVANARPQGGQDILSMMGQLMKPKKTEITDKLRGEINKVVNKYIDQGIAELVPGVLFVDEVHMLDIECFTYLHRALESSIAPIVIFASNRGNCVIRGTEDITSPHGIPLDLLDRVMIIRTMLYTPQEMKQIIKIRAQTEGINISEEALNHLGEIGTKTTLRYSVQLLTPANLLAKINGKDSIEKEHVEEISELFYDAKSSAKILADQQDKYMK

Assay [1] concerns the target T1, FLAG-tagged NOP2/NSUN1 WT (human) (UniProt P46087).
T1 sequence: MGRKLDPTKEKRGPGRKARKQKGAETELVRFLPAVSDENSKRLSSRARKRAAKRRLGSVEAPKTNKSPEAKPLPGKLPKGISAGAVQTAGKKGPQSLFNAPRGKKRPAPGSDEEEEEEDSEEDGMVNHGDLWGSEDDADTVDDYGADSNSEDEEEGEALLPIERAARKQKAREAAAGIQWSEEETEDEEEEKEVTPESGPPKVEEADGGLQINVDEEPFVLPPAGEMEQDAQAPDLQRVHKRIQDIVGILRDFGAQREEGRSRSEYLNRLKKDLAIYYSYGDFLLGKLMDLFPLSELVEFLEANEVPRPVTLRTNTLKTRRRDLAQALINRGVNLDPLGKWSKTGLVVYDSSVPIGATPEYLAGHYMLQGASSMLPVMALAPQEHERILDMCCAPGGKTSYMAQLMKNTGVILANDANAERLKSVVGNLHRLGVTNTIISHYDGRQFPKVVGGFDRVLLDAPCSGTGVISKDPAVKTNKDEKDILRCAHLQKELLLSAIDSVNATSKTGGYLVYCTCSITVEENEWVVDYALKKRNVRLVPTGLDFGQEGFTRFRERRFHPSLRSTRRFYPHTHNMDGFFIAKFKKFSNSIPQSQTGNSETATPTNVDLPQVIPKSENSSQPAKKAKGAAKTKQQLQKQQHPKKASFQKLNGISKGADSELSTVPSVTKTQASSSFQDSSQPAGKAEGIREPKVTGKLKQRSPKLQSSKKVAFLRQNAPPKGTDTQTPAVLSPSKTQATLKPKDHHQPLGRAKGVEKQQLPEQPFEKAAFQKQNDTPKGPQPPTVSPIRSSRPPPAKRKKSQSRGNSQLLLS
Kind of assay: co-IP; anti-FLAG IP from nuclear and nucleolar extracts of HEK293T cells expressing FLAG-NOP2/NSUN1 WT (mock as control); Western blot. (Immunoblotting shows a protein as a band on a membrane.)

Assay [2] has as its target T1, FLAG-tagged NOP2/NSUN1 WT (human). Kind of assay: co-IP; anti-FLAG IP from lysate of HEK293T cells expressing FLAG-NOP2/NSUN1 WT (mock-transfected cells as control); ELB buffer (0.5% NP-40, 50 mM HEPES pH 7.2, 250 mM NaCl, 2 mM EDTA), protein G agarose, Western blot.
The target of assay [3] is NOP56 (human (endogenous in HEK293T and HCT116)) (UniProt O00567). Kind of assay: co-IP; anti-NOP56 IP of endogenous proteins from nuclear and nucleolar extracts of HCT116 cells (normal rabbit IgG as control); Western blot.
Assay [4] addresses T2, La protein (human (endogenous in HCT116)) (UniProt P05455).
T2 sequence: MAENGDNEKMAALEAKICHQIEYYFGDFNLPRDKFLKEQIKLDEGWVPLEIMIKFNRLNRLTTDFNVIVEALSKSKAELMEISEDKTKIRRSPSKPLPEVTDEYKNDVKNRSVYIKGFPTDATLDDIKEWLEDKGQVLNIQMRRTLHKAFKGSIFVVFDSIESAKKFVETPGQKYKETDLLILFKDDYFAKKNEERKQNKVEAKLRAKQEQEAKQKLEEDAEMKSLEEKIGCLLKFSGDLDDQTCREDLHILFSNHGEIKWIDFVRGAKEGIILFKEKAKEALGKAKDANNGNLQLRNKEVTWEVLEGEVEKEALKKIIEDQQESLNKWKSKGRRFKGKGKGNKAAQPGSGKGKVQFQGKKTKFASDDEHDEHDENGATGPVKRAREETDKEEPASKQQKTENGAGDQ
Kind of assay: co-IP; IP of endogenous RUVBL1, NUFIP1 or La protein from sonicated HCT116 lysate (1% NP-40, 50 mM Tris-HCl pH 7.5, 150 mM NaCl, 2 mM MgCl2; normal rabbit IgG as control); Western blot.

Assay [5] deals with NUFIP1 (human (endogenous in HCT116)) (UniProt Q9UHK0). The assay is described as above.
The target of assay [6] is RUVBL1 (human (endogenous in HCT116)) (UniProt Q9Y265). Described as above.
Assay [7] deals with NOP56 (human (endogenous in HEK293T and HCT116)) (UniProt O00567). Description: co-IP; anti-NOP56 IP of endogenous proteins from HEK293T lysate (normal rabbit IgG as control); also from cells transfected with control or NOP2 siRNA for 72 h; ELB buffer, Western blot.

Results are given in words; binding and its absence hold for the method and conditions named. Binding seen in cells or lysates may run through a third protein. Some results given as binding are weak or reduced against the parent protein; the word gives no strength. For some of these results: Sequences can lack the tags named with a protein.

In the case of NOP56 (from UniProt O00567 1-594), the binding entry in assay [1] and in assay [2] was “binds” each time.

B1: endogenous NOP2/NSUN1 (enzyme, UniProt P46087 1-812)
chain: T1 sequence
As for B1, the binding entry in assay [3] is listed as “binds”; in assay [4], “no binding”; in assay [5], “binds”; in assay [6] it was “binds”; in assay [7] it was “binds”.

B2: Fibrillarin (enzyme, UniProt P22087 1-321)
chain: MKPGFSPRGGGFGGRGGFGDRGGRGGRGGFGGGRGRGGGFRGRGRGGGGGGGGGGGGGRGGGGFHSGGNRGRGRGGKRGNQSGKNVMVEPHRHEGVFICRGKEDALVTKNLVPGESVYGEKRVSISEGDDKIEYRAWNPFRSKLAAAILGGVDQIHIKPGAKVLYLGAASGTTVSHVSDIVGPDGLVYAVEFSHRSGRDLINLAKKRTNIIPVIEDARHPHKYRMLIAMVDVIFADVAQPDQTRIVALNAHTFLRNGGHFVISIKANCIDSTASAEAVFASEVKKMQQENMKPQEQLTLEPYERDHAVVVGVYRPPPKVKN
Take B2: the binding result in assay [1], in assay [7] and in assay [2] was “binds” in each case.
